The supplement of paper PMC8728848
This is one part of the list.

Legend:
Assay in all cases: glycan array binding signal (z-score within array); higher = stronger binding
Conditions in all cases: glycan notation: IUPAC condensed, linker removed
[1] = target: Fuc(a1-3)[Gal3S(b1-4)]GlcNAc
Summary of the method: (§1)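 From the Consortium for Functional Glycomics database, 3228 arrays were curated, keeping only those whose protein sequence was available. Binding is given as a within-array Z-score averaged across arrays sharing a protein sequence and across linkers. Negative Z-scores can be read as non-binding.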

[2] = target: Fuc(a1-3)[Gal3S(b1-4)]GlcNAc6S
Summary of the method: as §1

[3] = target: Fuc(a1-3)[GalNAc(b1-4)]GlcNAc
Summary of the method: as §1

Fuc(a1-4)GlcNAc = target: Fuc(a1-4)GlcNAc
Summary of the method: as §1

Fuc(b1-3)GlcNAc = target: Fuc(b1-3)GlcNAc
Summary of the method: as §1

Gal(a1-2)Gal = target: Gal(a1-2)Gal
Summary of the method: as §1

Gal(a1-3)Gal = target: Gal(a1-3)Gal
Summary of the method: as §1

Gal(a1-3)Gal(b1-3)GlcNAc = target: Gal(a1-3)Gal(b1-3)GlcNAc
Summary of the method: as §1

[4] = target: Gal(a1-3)Gal(b1-3)GlcNAc(b1-2)Man(a1-3)[Gal(a1-3)Gal(b1-3)GlcNAc(b1-2)Man(a1-6)]Man(b1-4)GlcNAc(b1-4)GlcNAc
Summary of the method: as §1

[5] = target: Gal(a1-3)Gal(b1-3)[Fuc(a1-4)]GlcNAc(b1-2)Man(a1-3)[Gal(a1-3)Gal(b1-3)[Fuc(a1-4)]GlcNAc(b1-2)Man(a1-6)]Man(b1-4)GlcNAc(b1-4)GlcNAc
Summary of the method: as §1

Gal(a1-3)Gal(b1-4)Glc = target: Gal(a1-3)Gal(b1-4)Glc
Summary of the method: as §1

Gal(a1-3)Gal(b1-4)GlcNAc = target: Gal(a1-3)Gal(b1-4)GlcNAc
Summary of the method: as §1

[6] = target: Gal(a1-3)Gal(b1-4)GlcNAc(b1-3)GalNAc
Summary of the method: as §1

[7] = target: Gal(a1-3)Gal(b1-4)[Fuc(a1-3)]GlcNAc
Summary of the method: as §1

[8] = target: Gal(a1-3)Gal(b1-4)[Fuc(a1-3)]GlcNAc(b1-2)Man(a1-3)[Gal(a1-3)Gal(b1-4)[Fuc(a1-3)]GlcNAc(b1-2)Man(a1-6)]Man(b1-4)GlcNAc(b1-4)GlcNAc
Summary of the method: as §1

Gal(a1-3)GalNAc = target: Gal(a1-3)GalNAc
Summary of the method: as §1

[9] = target: Gal(a1-3)[Gal(a1-4)]Gal(b1-4)GlcNAc
Summary of the method: as §1

[10] = target: Gal(a1-4)Gal(b1-3)GlcNAc(b1-2)Man(a1-3)[Gal(a1-4)Gal(b1-3)GlcNAc(b1-2)Man(a1-6)]Man(b1-4)GlcNAc(b1-4)GlcNAc
Summary of the method: as §1

Gal(a1-4)Gal(b1-4)Glc = target: Gal(a1-4)Gal(b1-4)Glc
Summary of the method: as §1

Gal(a1-4)Gal(b1-4)GlcNAc = target: Gal(a1-4)Gal(b1-4)GlcNAc
Summary of the method: as §1

[11] = target: Gal(a1-4)Gal(b1-4)GlcNAc(b1-2)Man(a1-3)[Gal(a1-4)Gal(b1-4)GlcNAc(b1-2)Man(a1-6)]Man(b1-4)GlcNAc(b1-4)GlcNAc
Summary of the method: as §1

[12] = target: Gal(a1-4)Gal(b1-4)GlcNAc(b1-3)Gal(b1-4)Glc
Summary of the method: as §1

Gal(a1-4)GlcNAc = target: Gal(a1-4)GlcNAc
Summary of the method: as §1

Gal(a1-6)Glc = target: Gal(a1-6)Glc
Summary of the method: as §1

Gal(b1-2)Gal = target: Gal(b1-2)Gal
Summary of the method: as §1

Gal(b1-3)Gal = target: Gal(b1-3)Gal
Summary of the method: as §1

Gal(b1-3)Gal(b1-4)GlcNAc = target: Gal(b1-3)Gal(b1-4)GlcNAc
Summary of the method: as §1

[13] = target: Gal(b1-3)Gal(b1-4)GlcNAc(b1-2)Man(a1-3)[Gal(b1-3)Gal(b1-4)GlcNAc(b1-2)Man(a1-6)]Man(b1-4)GlcNAc(b1-4)GlcNAc
Summary of the method: as §1

Gal(b1-3)GalNAc = target: Gal(b1-3)GalNAc
Summary of the method: as §1

[14] = target: Gal(b1-3)GalNAc(a1-3)[Fuc(a1-2)]Gal(b1-4)Glc
Summary of the method: as §1

[15] = target: Gal(b1-3)GalNAc(a1-3)[Fuc(a1-2)]Gal(b1-4)GlcNAc
Summary of the method: as §1

[16] = target: Gal(b1-3)GalNAc(b1-3)Gal(a1-4)Gal(b1-4)Glc
Summary of the method: as §1

[17] = target: Gal(b1-3)GalNAc(b1-4)Gal(b1-4)Glc
Summary of the method: as §1

[18] = target: Gal(b1-3)GalNAc(b1-4)[Neu5Ac(a2-3)]Gal(b1-4)Glc
Summary of the method: as §1

Gal(b1-3)GlcNAc = target: Gal(b1-3)GlcNAc
Summary of the method: as §1

[19] = target: Gal(b1-3)GlcNAc(a1-6)Gal(b1-4)GlcNAc
Summary of the method: as §1

[20] = target: Gal(b1-3)GlcNAc(b1-2)Man(a1-3)[Gal(b1-3)GlcNAc(b1-2)Man(a1-6)]Man(b1-4)GlcNAc(b1-4)GlcNAc
Summary of the method: as §1

B1: cupB6 (Pseudomonas aeruginosa), Q02SP7 (protein)
chain: MSMRLFPGRVSLRRRPGAQARQALVLGLCCLTGGQAWALNEVALNCSFGNGKGLPWRVVNELTSGTAKGTVLFARPVSLFLSYKPQASQEAHELVLGGNWSGVGYPGPYGTVASDVKGIGYRISVDAQDGVKRVIPVDNQPHALDKRVTSFSGSTTSDYLQELVLTVDPGELPAGDLKVTSVSGSATLNLWAVDRLKGEASIGSVLAVPADNYPTGVCRKPYSLIGPASIAIGGGPPPPPIPKKCKVEVGREINVKLGSVALKNFPRVNDTSTERSFDISLSECAALAKPEIAFRDKYVSAQQADPTILSLKSGGAAGFGIVVKNGLDQQRIRFDGTPYPMRRVGDSADLPLSAAYIRIGAEGELKAGVADGAAEFTFTFP
[1]
  glycan array binding signal (z-score): -0.135
[2]
  glycan array binding signal (z-score): 0.36
[3]
  glycan array binding signal (z-score): 0.033
Fuc(a1-4)GlcNAc
  glycan array binding signal (z-score): -0.086
Fuc(b1-3)GlcNAc
  glycan array binding signal (z-score): -0.163
Gal(a1-2)Gal
  glycan array binding signal (z-score): -0.079
Gal(a1-3)Gal
  glycan array binding signal (z-score): -0.05
Gal(a1-3)Gal(b1-3)GlcNAc
  glycan array binding signal (z-score): -0.086
[4]
  glycan array binding signal (z-score): 0.296
[5]
  glycan array binding signal (z-score): 0.113
Gal(a1-3)Gal(b1-4)Glc
  glycan array binding signal (z-score): -0.1
Gal(a1-3)Gal(b1-4)GlcNAc
  glycan array binding signal (z-score): -0.158
[6]
  glycan array binding signal (z-score): 0.099
[7]
  glycan array binding signal (z-score): -0.196
[8]
  glycan array binding signal (z-score): 0.01
Gal(a1-3)GalNAc
  glycan array binding signal (z-score): -0.032
[9]
  glycan array binding signal (z-score): 0.019
[10]
  glycan array binding signal (z-score): -0.05
Gal(a1-4)Gal(b1-4)Glc
  glycan array binding signal (z-score): -0.036
Gal(a1-4)Gal(b1-4)GlcNAc
  glycan array binding signal (z-score): -0.192
[11]
  glycan array binding signal (z-score): 0.472
[12]
  glycan array binding signal (z-score): 0.037
Gal(a1-4)GlcNAc
  glycan array binding signal (z-score): -0.117
Gal(a1-6)Glc
  glycan array binding signal (z-score): -0.09
Gal(b1-2)Gal
  glycan array binding signal (z-score): 0.042
Gal(b1-3)Gal
  glycan array binding signal (z-score): 0.029
Gal(b1-3)Gal(b1-4)GlcNAc
  glycan array binding signal (z-score): 0.043
[13]
  glycan array binding signal (z-score): -0.05
Gal(b1-3)GalNAc
  glycan array binding signal (z-score): 0.011
[14]
  glycan array binding signal (z-score): 0.021
[15]
  glycan array binding signal (z-score): 0.038
[16]
  glycan array binding signal (z-score): 0.153
[17]
  glycan array binding signal (z-score): 0
[18]
  glycan array binding signal (z-score): -0.23
Gal(b1-3)GlcNAc
  glycan array binding signal (z-score): -0.118
[19]
  glycan array binding signal (z-score): -0.051
[20]
  glycan array binding signal (z-score): -0.083
